PubChem BioAssay AID445 (National Center for Advancing Translational Sciences (NCATS), 2006)
About 40 (0.04%) of roughly 110,000 compounds were called active. The inconclusive results got no clear call from the source; some entries with a clear call stand among them for comparison. Calls follow the shape of the dose curve; as a rule, active = well fitted curve in the direction sought with a large enough effect in the signal ratio (not every such curve was filed as active); inconclusive = small, poorly fitted or top-dose-only effect, or a change in a side signal; inactive = flat fitted curve, though single readings scatter; the % refers to the signal ratio. Potencies beside an inconclusive call are fits to weak or partial responses and may not hold up.

Test: IkB Signaling;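 as to IkBa stabilization activation: 0% = basal untreated cells and 100% = reference inhibitor full response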
Details: ABC-DLBCL IkBa-CBG/CBR dual luciferase ratio (green luciferase fused to IkBa over red control in OCI-Ly3 lymphoma cells), 4 h; IkBa stabilization activation: at 57.1 µM (top of the series), scaled: untreated 0%, proteasome inhibitor 100% unless noted
In short: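 Luminescence ratio of IκBα-fused green versus native red beetle luciferase in OCI-Ly3 cells, 4 h post-doxycycline with compound; red signal alone, scaled from basal (0%) to zero light (-100%), flagged nonspecific or cytotoxic effects.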
Potency is read from the fitted curve at half-maximal effect.

| Structure (SMILES) | IkBa stabilization activation | Potency |
| --- | --- | --- |
| O=C(CSc1nccn1Cc1ccco1)Nc1cc(C(F)(F)F)ccc1Cl | inconclusive: -1.03% [signal inhibitor] |  |
| CCN(c1ccccc1)c1nnc(NC(=O)Nc2ccc(Br)c(C)c2)s1 | inconclusive: 2.14% [signal inhibitor] |  |
| CCOC(=O)C1CCCN(C(=O)Cn2sc3nc(C)cc(C)c3c2=O)C1 (stereo not drawn) | inactive: -7.69% |  |
| O=C(c1ccc2c(Cl)c3c(nc2c1)CCCC3)N1CCN(c2cccc(C(F)(F)F)c2)CC1 | inconclusive: 0.108% [signal inhibitor] |  |
| Cc1cc(C)nc(-n2nc(C)c(Sc3ccc(F)cc3)c2N)n1 | inconclusive: 1.51% [signal inhibitor] |  |
| O=C(CN1C(=O)COc2ccc(S(=O)(=O)N3CCCCCC3)cc21)N1CCN(c2ccccc2F)CC1 | inconclusive: 1.12% [signal inhibitor] |  |
| COc1ccc(Nc2cc(C(=O)NC3CCCC3)c3ccccc3n2)cc1 | inconclusive: -0.823% [signal inhibitor] |  |
| CCNc1nc(N)c(C(=O)c2ccc(Cl)s2)s1 | inactive: -8.46% |  |
| CCOc1ccc(Nc2oc(Cc3ccccc3)nc2C#N)cc1 | inconclusive: 2.58% [signal inhibitor] |  |
| CN1CCN(C(=O)Cn2ncc3c4ccccc4n(Cc4ccc(Cl)cc4)c3c2=O)CC1 | inconclusive: 1.91% [signal inhibitor] |  |
| CS(=O)(=O)N1CCc2cc(C(=O)N3CCN(c4ccccc4F)CC3)ccc21 | inconclusive: 1.47% [signal inhibitor] |  |
| O=C(CCSCc1ccc(Cl)cc1)NCc1ccc(F)cc1Cl | inconclusive: -1.3% [signal inhibitor] |  |
| O=C(c1cc2n(n1)C(C(F)(F)F)CC(c1ccco1)N2)N1CCc2ccccc2C1 (stereo not drawn) | inconclusive: 1.79% [signal inhibitor] |  |
| O=C(NC1CCCCC1)c1ccc(CSc2nc3ccncc3n2Cc2ccc(F)cc2)cc1 | inconclusive: 0.37% [signal inhibitor] |  |
| CCc1nn2c(=O)c(S(=O)(=O)Nc3ccc(Br)cc3F)c(C)nc2s1 | inconclusive: 6.02% [signal inhibitor] |  |
| c1coc(C2Nc3cccc4cccc(c34)N2)c1 |  | inconclusive: 15.8 µM [rising, partial curve] |
| Cc1ccc2nc(Cl)c3cc(C(=O)NCCCN(C)Cc4ccccc4)sc3c2c1 | inconclusive: -1.99% [signal inhibitor] |  |
| Cc1ccc2c(c1)c1c3n2CCN(C(=O)c2ccc(C(F)(F)F)cc2)C3CCC1 (stereo not drawn) | inconclusive: -0.691% [signal inhibitor] |  |
| Cc1cnc(NC(=O)c2ccc3c(c2)C(=O)N(Cc2ccco2)C3=O)s1 | inactive: 0.805% |  |
| CC1=C(C(=O)OCc2ccc(C)cc2)C(c2cccc(F)c2F)CC(=O)N1 (stereo not drawn) | inconclusive: 5.9% [signal inhibitor] |  |
| N#Cc1cc2cc3c(cc2nc1N1CCCCC1)OCCO3 | inactive: -2.85% |  |
| COC(=O)c1cc(OC)c(OC)cc1NC(=O)c1ccc(Br)o1 | inactive: -2.61% |  |
| COC(=O)CCn1nnc(-c2cccs2)n1 | inactive: -2.39% |  |
| CCOCCCNC(=O)c1cc2c(=O)n3cccc(C)c3nc2n1C | inactive: 3.84% |  |

| Structure (SMILES) | IkBa stabilization activation | Potency |
| --- | --- | --- |
| CCCCCn1c(CNC(=O)c2ccccc2)nc2ccccc21 | inconclusive: 0.876% [signal inhibitor] |  |
| COc1ccc(C2c3c(oc4ccccc4c3=O)C(=O)N2CCN2CCOCC2)cc1OC (stereo not drawn) | inactive: -5.16% |  |
| Cc1c(Cl)cccc1Nc1nn2c(=O)c3ccc(C(=O)NCCC4=CCCCC4)cc3nc2s1 | inactive: -1.44% |  |
| Cc1cc(C)c(S(=O)(=O)N2CCN(Cc3ccc4c(c3)OCO4)CC2)cc1C | inconclusive: 6.51% [signal inhibitor] |  |
| Cc1ccc(C)c(N(C)C(=O)Cc2c(C(=O)O)[nH]c3ccc(Cl)cc23)c1 | inconclusive: -6.27% [signal inhibitor] |  |
| CC(C)(C)c1ccc(C(=O)/C=C2\NC(=O)CS2)cc1 | inactive: -0.763% |  |
| COc1ccc(CN2CCN(c3ccccn3)CC2)cc1OCc1ccccc1 | inconclusive: 3.46% [signal inhibitor] |  |
| COc1ccccc1-c1nn2c(=O)cc(CN3CCN(C(=O)/C=C/c4ccccc4)CC3)nc2s1 | inconclusive: -0.765% [signal inhibitor] |  |
| CN(C)c1ccc(Nc2nc3ccccc3n3nnnc23)cc1 | inconclusive: 13.1% [signal inhibitor] |  |
| COc1ccccc1CNC(=O)CSc1nc(=O)[nH]c2c1CCC2 | inconclusive: 6.01% [signal inhibitor] |  |
| CCCC1=Nc2cc(C(=O)NCCOC)ccc2Sc2ccccc21 | inconclusive: 17.2% [signal activator] |  |
| O=C(Nc1nnc(C2CCCCC2)s1)c1ccc(Br)s1 |  | inconclusive: 0.0251 µM [signal inhibitor, full curve] |
| CC(=O)Nc1ccc(NC(=O)c2cc(-c3ccc4c(c3)OCCO4)on2)cc1 | inactive: 0.318% |  |
| Cc1cccc(CSc2ccc(-c3cccs3)nn2)c1 | inactive: -2.49% |  |
| COc1ccc(-c2nc(SCC(=O)NCCc3ccccc3)n[nH]2)cc1 | inconclusive: -0.349% [signal inhibitor] |  |
| COc1ccc(-c2noc(CSc3nnc(C)n3-c3ccc(C)c(C)c3)n2)c(OC)c1 | inconclusive: -0.987% [signal inhibitor] |  |
| Cc1ccc2onc(CC(=O)N3CCN(c4ccccc4)CC3)c2c1 | inconclusive: 0.122% [signal inhibitor] |  |
| COc1ccccc1O | inactive |  |
| CC(C)(C)c1ccc([C@@H](O)CCCN2CCC(C(O)(c3ccccc3)c3ccccc3)CC2)cc1 | inconclusive: -18.1% [signal inhibitor] |  |
| CCc1ccc(OCC(=O)Nc2ccc3c(c2)c2ccccc2n3CC)c(Br)c1 | inactive: -6.88% |  |
| N#C/C(=C\c1cc(Br)c(O)c(Br)c1)c1nc2ccccc2c(=O)[nH]1 | inconclusive: 9.26% [signal inhibitor] |  |
| Cc1ccc(CCNC(=O)CCn2nc(-c3ccc(C)cc3)ccc2=O)cc1 | inconclusive: 0.76% [signal inhibitor] |  |
| CCN(CC)CCSc1nnc2c3cc(F)ccc3n(CC)c2n1 | inactive: -4.24% |  |
| COc1cccc(C(=O)n2nc(-c3cccnc3)nc2NCc2ccc(F)cc2)c1 | inconclusive: 3.39% [signal inhibitor] |  |
